According to the supplement of paper PMC3334620:
In all, about 33,000 sequences were measured (“E-score (-0.5 to 0.5)”: median about -0.032, highest 2% from about 0.36 on). The list shows a part of the results.

These sequences were tested against T1, Sko1 (UniProt Q02100) (assay: PBM E-score (8-mer binding enrichment) (E-score (-0.5 to 0.5)); higher = stronger / more preferred TF binding; most listed sequences are background and not binding sites). Conditions: protein concentration: 200 nM; construct: GST-full length.
T1 sequence: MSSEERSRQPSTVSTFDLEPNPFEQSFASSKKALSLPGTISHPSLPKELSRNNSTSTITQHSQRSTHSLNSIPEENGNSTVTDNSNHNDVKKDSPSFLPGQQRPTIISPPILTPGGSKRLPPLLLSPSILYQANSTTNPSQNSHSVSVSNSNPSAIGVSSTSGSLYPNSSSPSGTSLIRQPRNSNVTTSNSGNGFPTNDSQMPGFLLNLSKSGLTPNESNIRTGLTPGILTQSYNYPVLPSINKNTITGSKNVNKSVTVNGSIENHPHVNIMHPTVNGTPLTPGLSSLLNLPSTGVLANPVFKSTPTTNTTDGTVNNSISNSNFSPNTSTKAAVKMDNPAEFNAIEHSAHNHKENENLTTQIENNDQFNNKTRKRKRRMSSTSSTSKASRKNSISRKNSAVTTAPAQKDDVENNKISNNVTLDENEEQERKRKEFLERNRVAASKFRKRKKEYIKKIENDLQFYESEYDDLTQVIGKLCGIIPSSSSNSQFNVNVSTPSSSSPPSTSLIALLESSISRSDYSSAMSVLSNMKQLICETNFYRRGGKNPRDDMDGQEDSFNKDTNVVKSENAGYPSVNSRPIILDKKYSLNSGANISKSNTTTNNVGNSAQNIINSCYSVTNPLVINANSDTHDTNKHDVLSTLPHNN
How it was run: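 GST-tagged yeast TFs (full-length or DNA-binding domain) were made by PURExpress in vitro transcription/translation and applied at about 100-200 nM to universal all-10-mer Agilent arrays. The arrays were made double-stranded by primer extension, on fresh or once-stripped slides. Bound protein was detected with fluorescent anti-GST, and scans were normalised with masliner. Each ungapped eight-base word, pooled with its reverse complement, received an E-score (modified Wilcoxon-Mann-Whitney statistic) from the Universal PBM Analysis Suite.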

Sequence | PBM E-score
ATGTAGTC | 0.107
CACTACAG | 0.0339
CGGAGTAC | -0.316
GGTAACCA | -0.101
GCTTTGAA | -0.0773
TGATCCCA | -0.103
AAAAGCCA | -0.0529
CCCGTGAG | -0.124
CCCGCAGG | -0.274
TAGTACAA | -0.00782
CACTTCTA | -0.189
AAGAACGA | 0.0924
CTGATCAC | -0.0249
CGCACTTA | 0.0851
TCGGTACA | 0.117
ACGTCAGG | 0.457
CATCGGGG | -0.219
AAAGGCTG | -0.182
AGGTCCTA | -0.137
GCTTGGTA | 0.0615
CATGGTAC | -0.0945
GGATGGGA | -0.267
ACGTCAAG | 0.444
AAGGCACA | -0.107
GGTCATAA | 0.138

Sequence | PBM E-score
AGTGCCCC | -0.151
CATCGAGG | -0.0869
GTGCTCAA | 0.198
CCTCCCCC | -0.23
TAGGGTAA | 0.00468
ACGTGAAA | 0.386
ATCATGAT | 0.254
CGCCATTC | 0.0122
ACCCACTA | -0.00296
GGCGCGAC | -0.121
AGAAAGTA | 0.135
CCGTGCAC | -0.089
AAATGCCA | -0.0103
ACGTGTAA | 0.386
AAGCGCAG | -0.17
ATCCTCCC | -0.127
CATTACCA | 0.0577
AGGCGGGG | -0.239
CAAGGACC | -0.204
CCTTACTA | 0.0289
ACACTGTA | -0.0731
TCTCTCCA | -0.0408
TCCCAGAA | -0.185
ATTATTTA | 0.266
ATATTCGA | -0.0363

Sequence | PBM E-score
AGCGTACC | -0.0829
CCCGAATC | -0.275
GTATGCGA | 0.148
TCGCCTCA | -0.0924
AATCAATC | 0.0884
CTCCGTTA | -0.117
GATGTTAA | 0.155
ACAGATAA | 0.0507
TGAGCACA | 0.131
CAATTCAC | 0.049
CCTCACGC | 0.0875
ACGTACCT | 0.377
CCCCGACA | -0.11
AATTCCGT | 0.205
ACGCATGA | 0.292
CGGTGCAA | -0.251
CTCACCAG | -0.0682
ACCAAGTC | -0.0998
TGCCGCAA | 0.0562
TATGAGAA | 0.07
AGGAACAT | 0.176
AGAAACTA | 0.0178
CTCAGCTA | -0.166
GATCAATA | 0.157
CAAGTAGC | 0.0226

Sequence | PBM E-score
ATAATTCG | 0.221
CGTCCACG | 0.239
AGCTTTTA | 0.167
CGGGCTAC | -0.127
CTAACTGA | -0.0156
GCGACGCA | 0.128
TGTACTAA | 0.0373
ACCATGGA | -0.112
GCGTGGAC | 0.0575
CGTGTCTA | 0.205
ACGCGAAC | 0.0905
GAAATACA | 0.268
GTGGTCAA | -0.113
CGAGATAC | 0.229
CTCTGGGA | -0.322
AGTCCACC | -0.263
AGTGGGCA | -0.0178
AAGAAGAG | -0.078
TTCTAGAA | -0.0322
ACAACTGG | -0.203
ACGGGTCC | -0.369
ATTACCAG | -0.0418
ACATCTCA | 0.0821
ATAAGACG | 0.115
ACCGCGCG | 0.00662

Sequence | PBM E-score
TATCCTGA | 0.0017
CGTGACTC | 0.172
GATATCCA | 0.0425
ATCAAAAA | 0.186
CGTCACAC | 0.437
CCCTCCAC | -0.136
CAGCAGGG | -0.269
AACATTAG | -0.0252
TACAAAAA | 0.223
CAGACGGC | -0.301
GCACAGGC | -0.115
AGCAGGCG | -0.0967
CGGGCCGC | -0.242
GACGTTGA | 0.269
CATTTACC | 0.129
CGTTTCAG | 0.104
AGCATGAG | -0.136
ACGTACCC | 0.435
CACAGTCA | -0.095
AATATGTG | 0.227
CGTCAAAG | 0.331
CCTTATAA | 0.0933
GTGTGGGA | -0.0912
CATTCATC | 0.0487
CGAAAACG | 0.188

Sequence | PBM E-score
TCAGCGGA | -0.234
CGGATGGA | -0.201
GCCTTATA | -0.0532
AATGATCT | 0.201
AGCATACC | -0.00962
CCAAAAGC | -0.102
CAGGCATC | -0.138
AGGATTAT | -0.125
ATCGAACC | -0.0105
ACAACTCG | -0.0242
ACAGTACC | -0.194
GAAGTTCA | 0.0026
AACCGCGC | -0.0849
AGGGCCGC | -0.217
ACTTTCGC | 0.0343
AACCAGGT | -0.222
AGGTGGAG | -0.145
CGATGCGA | -0.15
CTAGCTAG | 0.0391
GAAACAAA | 0.132
AGACGACC | -0.195
GCTAGTCC | -0.2
AGCGACCT | -0.273
AATTCTCA | 0.0751
AAAGAAAG | 0.0193

Sequence | PBM E-score
AATAGCAT | 0.158
AGCTCTGA | -0.0847
CCGGTTGA | -0.262
ATCGTGGC | -0.0464
GGGGATTA | -0.00914
TGCAAAAA | -0.0159
ATTTCTCG | 0.208
AGGAGCGC | -0.179
GGCTGATA | -0.161
GTACGGAC | -0.0428
GGCTGCCC | -0.411
GAATTACC | 0.117
ACGAGCGG | -0.0751
GCGCCAGC | -0.239
ATCCCGGA | -0.279
CAACCAGC | -0.125
AAATGGAT | -0.0156
ACAGGGGG | -0.385
CGAGTATC | -0.167
CCCTTTAC | 0.0038
AAAAAGTA | 0.231
ACTAGAGT | 0.0936
AACAGTAA | -0.0208
AATCTGCG | 0.00155
ACAGCTCT | -0.267

Sequence | PBM E-score
CTCTAGAG | -0.261
ACTGTTAA | 0.101
AATGGATA | -0.021
ACGCCCGC | -0.0294
AACTTTCG | 0.0319
GATGACAC | 0.257
CAACGATG | 0.0182
CATCGTCA | 0.395
GTGGGCCA | 0.0229
GTTCAGCA | 0.0043
CCCTCTGA | -0.128
GTCTGTCA | -0.0302
AGGAAAAG | 0.0334
ATCGAGGC | -0.122
ACCTGGTG | -0.272
AAAGGAGT | -0.161
CGTCAGGA | 0.39
GACTGAAC | -0.31
GATGTACA | 0.0843
AATCGCGG | -0.215
GGTCCAAC | -0.217
CACCTGCC | -0.0379
ACAGAATC | -0.0883
AGATGTAT | 0.133
TATATTAA | 0.278

Sequence | PBM E-score
ACTGCGAC | 0.0239
ACCGCTAG | -0.199
AAACGAGG | -0.0296
TAACTCGA | 0.19
CAGTAGCG | -0.0769
AACTTGTC | 0.0252
CTAGGTAA | 0.0696
ACACGTGA | 0.415
ACGCATTG | 0.267
AACGCGAT | 0.0804
ATTAGAAT | 0.183
CGCCAGAG | -0.296
CTGCAAAA | 0.0796
ATTACAGC | -0.116
CAGAACCA | -0.153
CCGAGATC | -0.237
AAAAGATG | 0.139
GATCGTAA | 0.281
CCCAACTC | -0.0116
